Some of the results follow.
Key:
Assay in all cases: glycan array binding signal (z-score within array); higher = stronger binding
Conditions in all cases: glycan notation: IUPAC condensed, linker removed
[1] = target: Fuc(a1-2)[Gal(a1-3)]Gal(b1-4)GlcNAc(b1-2)Man(a1-3)[Fuc(a1-2)[Gal(a1-3)]Gal(b1-4)GlcNAc(b1-2)Man(a1-6)]Man(b1-4)GlcNAc(b1-4)[Fuc(a1-6)]GlcNAc
In short: (§1)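 Arrays were curated from the Consortium for Functional Glycomics database, 3228 in total, and kept only where the protein sequence was available. Binding is expressed as a within-array Z-score. This score was averaged across arrays of the same protein sequence at different concentrations or buffers and across linkers, and negative values can be read as non-binding.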

[2] = target: Fuc(a1-2)[Gal(a1-3)]Gal(b1-4)GlcNAc(b1-3)GalNAc
In short: as §1

[3] = target: Fuc(a1-2)[Gal(a1-3)]Gal(b1-4)GlcNAc(b1-3)[Fuc(a1-2)[Gal(a1-3)]Gal(b1-4)GlcNAc(b1-6)]GalNAc
In short: as §1

[4] = target: Fuc(a1-2)[Gal(a1-3)]Gal(b1-4)GlcNAc(b1-6)GalNAc
In short: as §1

[5] = target: Fuc(a1-2)[Gal(a1-3)]Gal(b1-4)[Fuc(a1-3)]Glc
In short: as §1

[6] = target: Fuc(a1-2)[Gal(a1-3)]Gal(b1-4)[Fuc(a1-3)]GlcNAc
In short: as §1

[7] = target: Fuc(a1-2)[Gal(a1-3)]Gal(b1-4)[Fuc(a1-3)]GlcNAc(b1-3)GalNAc
In short: as §1

[8] = target: Fuc(a1-2)[Gal(a1-4)]Gal(b1-4)GlcNAc
In short: as §1

[9] = target: Fuc(a1-2)[GalNAc(a1-3)]Gal
In short: as §1

[10] = target: Fuc(a1-2)[GalNAc(a1-3)]Gal(b1-3)GalNAc(a1-3)[Fuc(a1-2)]Gal(b1-4)GlcNAc
In short: as §1

[11] = target: Fuc(a1-2)[GalNAc(a1-3)]Gal(b1-3)GalNAc(b1-3)Gal(a1-4)Gal(b1-4)Glc
In short: as §1

[12] = target: Fuc(a1-2)[GalNAc(a1-3)]Gal(b1-3)GlcNAc
In short: as §1

[13] = target: Fuc(a1-2)[GalNAc(a1-3)]Gal(b1-3)GlcNAc(b1-2)Man(a1-3)[Fuc(a1-2)[GalNAc(a1-3)]Gal(b1-3)GlcNAc(b1-2)Man(a1-6)]Man(b1-4)GlcNAc(b1-4)GlcNAc
In short: as §1

[14] = target: Fuc(a1-2)[GalNAc(a1-3)]Gal(b1-3)GlcNAc(b1-2)Man(a1-3)[Fuc(a1-2)[GalNAc(a1-3)]Gal(b1-3)GlcNAc(b1-2)Man(a1-6)]Man(b1-4)GlcNAc(b1-4)[Fuc(a1-6)]GlcNAc
In short: as §1

[15] = target: Fuc(a1-2)[GalNAc(a1-3)]Gal(b1-3)GlcNAc(b1-3)GalNAc
In short: as §1

[16] = target: Fuc(a1-2)[GalNAc(a1-3)]Gal(b1-3)GlcNAc(b1-6)GalNAc
In short: as §1

[17] = target: Fuc(a1-2)[GalNAc(a1-3)]Gal(b1-4)Glc
In short: as §1

[18] = target: Fuc(a1-2)[GalNAc(a1-3)]Gal(b1-4)GlcNAc
In short: as §1

[19] = target: Fuc(a1-2)[GalNAc(a1-3)]Gal(b1-4)GlcNAc(b1-2)Man
In short: as §1

[20] = target: Fuc(a1-2)[GalNAc(a1-3)]Gal(b1-4)GlcNAc(b1-2)Man(a1-3)[Fuc(a1-2)[GalNAc(a1-3)]Gal(b1-4)GlcNAc(b1-2)Man(a1-6)]Man(b1-4)GlcNAc(b1-4)GlcNAc
In short: as §1

[21] = target: Fuc(a1-2)[GalNAc(a1-3)]Gal(b1-4)GlcNAc(b1-2)Man(a1-3)[Fuc(a1-2)[GalNAc(a1-3)]Gal(b1-4)GlcNAc(b1-2)Man(a1-6)]Man(b1-4)GlcNAc(b1-4)[Fuc(a1-6)]GlcNAc
In short: as §1

[22] = target: Fuc(a1-2)[GalNAc(a1-3)]Gal(b1-4)GlcNAc(b1-3)Gal(b1-4)GlcNAc
In short: as §1

[23] = target: Fuc(a1-2)[GalNAc(a1-3)]Gal(b1-4)GlcNAc(b1-3)Gal(b1-4)GlcNAc(b1-3)Gal(b1-4)GlcNAc
In short: as §1

[24] = target: Fuc(a1-2)[GalNAc(a1-3)]Gal(b1-4)GlcNAc(b1-3)GalNAc
In short: as §1

[25] = target: Fuc(a1-2)[GalNAc(a1-3)]Gal(b1-4)GlcNAc(b1-3)[Fuc(a1-2)[GalNAc(a1-3)]Gal(b1-4)GlcNAc(b1-6)]GalNAc
In short: as §1

[26] = target: Fuc(a1-2)[GalNAc(a1-3)]Gal(b1-4)GlcNAc(b1-6)GalNAc
In short: as §1

[27] = target: Fuc(a1-2)[GalNAc(a1-3)]Gal(b1-4)[Fuc(a1-3)]GlcNAc
In short: as §1

[28] = target: Fuc(a1-2)[GalNAc(a1-3)]Gal(b1-4)[Fuc(a1-3)]GlcNAc(b1-3)GalNAc
In short: as §1

[29] = target: Fuc(a1-2)[GalNAc(a1-4)]Gal(b1-4)GlcNAc
In short: as §1

[30] = target: Fuc(a1-2)[GalNAc(b1-3)]Gal
In short: as §1

[31] = target: Fuc(a1-3)GlcNAc
In short: as §1

[32] = target: Fuc(a1-3)[Gal(b1-4)]Glc6S
In short: as §1

[33] = target: Fuc(a1-3)[Gal(b1-4)]GlcNAc
In short: as §1

[34] = target: Fuc(a1-3)[Gal(b1-4)]GlcNAc(b1-2)Man
In short: as §1

[35] = target: Fuc(a1-3)[Gal(b1-4)]GlcNAc(b1-2)Man(a1-3)[Fuc(a1-3)[Gal(b1-4)]GlcNAc(b1-2)Man(a1-6)]Man(b1-4)GlcNAc(b1-4)GlcNAc
In short: as §1

[36] = target: Fuc(a1-3)[Gal(b1-4)]GlcNAc(b1-2)Man(a1-3)[Fuc(a1-3)[Gal(b1-4)]GlcNAc(b1-2)Man(a1-6)]Man(b1-4)GlcNAc(b1-4)[Fuc(a1-6)]GlcNAc
In short: as §1

[37] = target: Fuc(a1-3)[Gal(b1-4)]GlcNAc(b1-3)Gal(b1-3)[Fuc(a1-4)]GlcNAc
In short: as §1

[38] = target: Fuc(a1-3)[Gal(b1-4)]GlcNAc(b1-3)Gal(b1-4)[Fuc(a1-3)]GlcNAc
In short: as §1

[39] = target: Fuc(a1-3)[Gal(b1-4)]GlcNAc(b1-3)Gal(b1-4)[Fuc(a1-3)]GlcNAc(b1-3)Gal(b1-4)[Fuc(a1-3)]GlcNAc
In short: as §1

[40] = target: Fuc(a1-3)[Gal(b1-4)]GlcNAc(b1-3)GalNAc
In short: as §1

[41] = target: Fuc(a1-3)[Gal(b1-4)]GlcNAc(b1-6)GalNAc
In short: as §1

[42] = target: Fuc(a1-3)[Gal(b1-4)]GlcNAc(b1-6)[Gal(b1-3)GlcNAc(b1-3)]Gal(b1-4)Glc
In short: as §1

[43] = target: Fuc(a1-3)[Gal(b1-4)]GlcNAc6S
In short: as §1

[44] = target: Fuc(a1-3)[Gal3S(b1-4)]Glc
In short: as §1

[45] = target: Fuc(a1-3)[Gal3S(b1-4)]GlcNAc
In short: as §1

[46] = target: Fuc(a1-3)[Gal3S(b1-4)]GlcNAc6S
In short: as §1

[47] = target: Fuc(a1-3)[GalNAc(b1-4)]GlcNAc
In short: as §1

[48] = target: Fuc(a1-3)[GalNAc(b1-4)]GlcNAc6S
In short: as §1

[49] = target: Fuc(a1-4)GlcNAc
In short: as §1

[50] = target: Fuc(b1-3)GlcNAc
In short: as §1

[51] = target: Gal(a1-2)Gal
In short: as §1

[52] = target: Gal(a1-3)Gal
In short: as §1

[53] = target: Gal(a1-3)Gal(b1-3)GlcNAc
In short: as §1

[54] = target: Gal(a1-3)Gal(b1-3)GlcNAc(b1-2)Man
In short: as §1

[55] = target: Gal(a1-3)Gal(b1-3)GlcNAc(b1-2)Man(a1-3)[Gal(a1-3)Gal(b1-3)GlcNAc(b1-2)Man(a1-6)]Man(b1-4)GlcNAc(b1-4)GlcNAc
In short: as §1

[56] = target: Gal(a1-3)Gal(b1-3)GlcNAc(b1-3)GalNAc
In short: as §1

[57] = target: Gal(a1-3)Gal(b1-3)GlcNAc(b1-6)GalNAc
In short: as §1

[58] = target: Gal(a1-3)Gal(b1-3)[Fuc(a1-4)]GlcNAc(b1-2)Man(a1-3)[Gal(a1-3)Gal(b1-3)[Fuc(a1-4)]GlcNAc(b1-2)Man(a1-6)]Man(b1-4)GlcNAc(b1-4)GlcNAc
In short: as §1

[59] = target: Gal(a1-3)Gal(b1-4)Glc
In short: as §1

[60] = target: Gal(a1-3)Gal(b1-4)GlcNAc
In short: as §1

B1: SP16663B-bot-321-25-321 (Bacteroides ovatus) (protein)
chain: DDDDEVTMNSKFYLSTKVFPVDSYEASLSVILKDNSVVVNELQPNYRFVACATERLSKDVKITADSDDNLVSAYNKANDTEYNILPAENYSFTNKTVTIENGESVSGDSIKIELLNVGSLTTEGGYLLPVTISSIEGNNLDALSSNRGVVYLKIQNIHVNVESGQPAEGTLIADRSGWTVKVAPTTRGDAKNLIDGTNSDVARDGGAEYWLTVDIGKVQTLTGIRNKCYASSYSPTAVEVFTSSDGAKWKSIGAVTISKSGTQYIKFSKAVETRYLKYYVKQGPNTVSLTEFDLYAK
- glycan array binding signal (z-score) [1]: -0.33
- glycan array binding signal (z-score) [2]: -0.61
- glycan array binding signal (z-score) [3]: 1.9
- glycan array binding signal (z-score) [4]: -0.309
- glycan array binding signal (z-score) [5]: -0.673
- glycan array binding signal (z-score) [6]: -0.06
- glycan array binding signal (z-score) [7]: -0.48
- glycan array binding signal (z-score) [8]: -0.238
- glycan array binding signal (z-score) [9]: 0.321
- glycan array binding signal (z-score) [10]: -0.027
- glycan array binding signal (z-score) [11]: -0.296
- glycan array binding signal (z-score) [12]: 0.071
- glycan array binding signal (z-score) [13]: -0.258
- glycan array binding signal (z-score) [14]: -0.366
- glycan array binding signal (z-score) [15]: 0.547
- glycan array binding signal (z-score) [16]: -0.524
- glycan array binding signal (z-score) [17]: -0.114
- glycan array binding signal (z-score) [18]: -0.642
- glycan array binding signal (z-score) [19]: 1.04
- glycan array binding signal (z-score) [20]: -0.25
- glycan array binding signal (z-score) [21]: -0.437
- glycan array binding signal (z-score) [22]: -0.377
- glycan array binding signal (z-score) [23]: 0.462
- glycan array binding signal (z-score) [24]: -0.199
- glycan array binding signal (z-score) [25]: -0.651
- glycan array binding signal (z-score) [26]: -0.098
- glycan array binding signal (z-score) [27]: -0.437
- glycan array binding signal (z-score) [28]: 0.604
- glycan array binding signal (z-score) [29]: -0.418
- glycan array binding signal (z-score) [30]: 0.342
- glycan array binding signal (z-score) [31]: 0.093
- glycan array binding signal (z-score) [32]: 1.36
- glycan array binding signal (z-score) [33]: 0.012
- glycan array binding signal (z-score) [34]: 0.558
- glycan array binding signal (z-score) [35]: -0.239
- glycan array binding signal (z-score) [36]: -0.08
- glycan array binding signal (z-score) [37]: -0.444
- glycan array binding signal (z-score) [38]: -0.452
- glycan array binding signal (z-score) [39]: -0.369
- glycan array binding signal (z-score) [40]: -0.169
- glycan array binding signal (z-score) [41]: 0.145
- glycan array binding signal (z-score) [42]: -0.297
- glycan array binding signal (z-score) [43]: 0.854
- glycan array binding signal (z-score) [44]: -0.298
- glycan array binding signal (z-score) [45]: 0.603
- glycan array binding signal (z-score) [46]: -0.468
- glycan array binding signal (z-score) [47]: 0.867
- glycan array binding signal (z-score) [48]: 0.084
- glycan array binding signal (z-score) [49]: 21.5
- glycan array binding signal (z-score) [50]: 0.24
- glycan array binding signal (z-score) [51]: 0.593
- glycan array binding signal (z-score) [52]: 0.418
- glycan array binding signal (z-score) [53]: 0.607
- glycan array binding signal (z-score) [54]: -0.269
- glycan array binding signal (z-score) [55]: -0.494
- glycan array binding signal (z-score) [56]: -0.377
- glycan array binding signal (z-score) [57]: 0.655
- glycan array binding signal (z-score) [58]: 0.425
- glycan array binding signal (z-score) [59]: -0.34
- glycan array binding signal (z-score) [60]: -0.218
